The supplement of paper PMC8813932
Counter-ions that a name gives are not always drawn. ± gives the standard deviation of the averaged measurements. The list shows a part of the results. Most values come without repeats; read them as rough.

Columns and labels:
Test in all cases: log2 surviving fraction relative to plate median (drug vs vehicle, or drug+dl922-947 vs dl922-947 alone); ovarian cancer lines: OVCAR4 is platinum-sensitive while Ov4Cis resists cisplatin and Ov4Carbo carboplatin; higher = more cell survival
Details in all cases: compound concentration: 10 uM, 192 h
OVCAR4 = test system: OVCAR4
Ov4Carbo = test system: Ov4Carbo
Ov4Cis = test system: Ov4Cis
[1] = dl922-947 oncolytic adenovirus co-treatment: MOI 10
[2] = dl922-947 oncolytic adenovirus co-treatment: none

Structure (SMILES)	log2 surviving fraction (OVCAR4; [1])	log2 surviving fraction (OVCAR4; [2])	log2 surviving fraction (Ov4Carbo; [1])	log2 surviving fraction (Ov4Carbo; [2])	log2 surviving fraction (Ov4Cis; [1])	log2 surviving fraction (Ov4Cis; [2])
O=C1NC(=O)C(c2ccccc2)(c2ccccc2)N1 [Phenytoin (Lepitoin)]	-0.461 ± 0.99	-0.0872 ± 0.33	-0.702	-0.116	-0.126	-0.643
N=C(N)NC(=N)N1CCOCC1 [Moroxydine]	-0.184 ± 0.34	-0.281 ± 0.28	-0.0869	0.265	-1.04	-0.275
CC1(C)S[C@@H]2[C@H](NC(=O)[C@H](N)c3ccccc3)C(=O)N2[C@H]1C(=O)O [Ampicillin Trihydrate]	0.448 ± 0.69	0.682 ± 1.6	1.26	0.687	-0.31	0.0588
c1ccc(-c2ccc(C(c3ccccc3)n3ccnc3)cc2)cc1 (configuration not stated) [Bifonazole]	-0.76 ± 0.026	-1.06 ± 0.28	-0.565	-1.72	-0.122	-0.101
Oc1c(Cl)cc(Cl)c2cccnc12 [Chloroxine]	-3.26 ± 0.59	-4.69 ± 0.061	-1.9	-3.78	-2.94	-1.52
C[C@H](Cc1cc2c(c(C(N)=O)c1)N(CCCO)CC2)NCCOc1ccccc1OCC(F)(F)F [Silodosin (Rapaflo)]	-0.381 ± 0.14	-0.373 ± 0.37	-0.857	-0.351	-0.44	-0.557
COc1ncnc(NS(=O)(=O)c2ccc(N)cc2)c1OC [Sulfadoxine (Sulphadoxine)]	-0.242 ± 0.58	-0.138 ± 0.24	-1.07	0.239	-0.177	-0.104
CCC[C@@H]1C[C@@H](C(=O)N[C@@H]([C@H]2O[C@H](SC)[C@H](O)[C@@H](O)[C@H]2O)[C@H](C)Cl)N(C)C1 [Clindamycin hydrochloride (Dalacin)]	0.965 ± 0.4	0.264 ± 0.43	0.839	1.84	0.198	0.701
C[C@H]1C[C@H]2[C@@H]3CCC4=CC(=O)C=C[C@]4(C)[C@H]3C(=O)C[C@]2(C)[C@@]1(O)C(=O)CO [Betapar (Meprednisone)]	0.346 ± 0.47	-0.0783 ± 0.47	0.231	-0.627	-0.38	0.108
O=C1CCC(N2C(=O)c3ccccc3C2=O)C(=O)N1 (configuration not stated) [Thalidomide]	0.702 ± 0.12	3.19 ± 2.7	1.07	2.64	1.7	0.869
CC(C)NCC(O)COc1cccc2ccccc12 (configuration not stated) [Propranolol HCl]	-0.838 ± 0.99	-0.184 ± 0.6	-0.403	-0.37	-0.729	0.0304
CN(C/C=C/C#CC(C)(C)C)Cc1cccc2ccccc12 [Terbinafine hydrochloride (Lamisil)]	0.364 ± 0.11	0.426 ± 0.88	1.17	0.528	1.36	0.564
CN[C@@H]1[C@H](O[C@H]2[C@H](O[C@H]3[C@H](O)[C@@H](O)[C@H](N=C(N)N)[C@@H](O)[C@@H]3N=C(N)N)O[C@@H](C)[C@]2(O)C=O)O[C@@H](CO)[C@H](O)[C@H]1O [Streptomycin sulfate]	1.57 ± 0.43	0.37 ± 2.3	0.368	0.85	1.35	1.07
O=S(=O)(O)CCS [Mesna (Uromitexan, Mesnex)]	-0.387 ± 0.71	0.886 ± 0.68	-0.361	0.52	-0.0337	-0.429
c1ccc(CN(CC2=NCCN2)c2ccccc2)cc1 [Antazoline HCl]	-0.146 ± 0.29	-0.453 ± 0.16	-0.179	-0.361	-0.204	-0.894
CC1COc2c(N3CCN(C)CC3)c(F)cc3c(=O)c(C(=O)O)cn1c23 (configuration not stated) [Ofloxacin (Floxin)]	1.11 ± 0.37	0.142 ± 0.2	0.638	0.552	0.237	0.942
CN(C)CCc1c[nH]c2ccc(Cn3cncn3)cc12 [Rizatriptan Benzoate (Maxalt)]	0.0161 ± 0.57	-0.113 ± 0.87	0.217	-0.347	0.699	0.289
COc1ccc2cc([C@H](C)C(=O)O)ccc2c1 [Naproxen (Aleve)]	0.214 ± 0.89	0.327 ± 0.91	1.35	0.318	-0.0423	-1.24
Nc1nccs1 [Aminothiazole]	-0.9 ± 0.078	-0.349 ± 0.024	-0.0602	0.0305	0.00246	-0.663
COc1ccccc1OCC(O)COC(N)=O (configuration not stated) [Methocarbamol (Robaxin)]	0.0262 ± 0.28	0.283 ± 0.4	-1.29	0.902	0.137	0.134
CCC(=O)OCC(=O)[C@@]1(OC(=O)CC)[C@@H](C)C[C@H]2[C@@H]3CCC4=CC(=O)C=C[C@]4(C)[C@@]3(F)[C@@H](O)C[C@@]21C [Betamethasone Dipropionate (Diprolene)]	0.778 ± 0.2	-0.933 ± 1.3	0.713	-0.0884	0.888	-1.4
C=C1c2c(Cl)ccc(O)c2C(=O)C2=C(O)[C@]3(O)C(=O)C(C(N)=O)=C(O)[C@@H](N(C)C)[C@@H]3[C@@H](O)[C@H]12.O=C(O)c1cc(S(=O)(=O)O)ccc1O [Meclocycline Sulfosalicylate]	0.878 ± 0.2	0.0839 ± 0.49	-0.00223	-2.1	0.601	-0.0836
CS(=O)(=O)CCNCc1ccc(-c2ccc3ncnc(Nc4ccc(OCc5cccc(F)c5)c(Cl)c4)c3c2)o1 [Lapatinib Ditosylate (Tykerb)]	0.382 ± 0.15	-1.71 ± 9.3	-4.51	-1.18	-1.84	-0.934
NCCc1ccc(O)c(O)c1 [Dopamine hydrochloride (Inotropin)]	-0.318 ± 0.24	-0.0334 ± 0.035	0.138	-0.642	-0.0667	-0.908

Structure (SMILES)	log2 surviving fraction (OVCAR4; [1])	log2 surviving fraction (OVCAR4; [2])	log2 surviving fraction (Ov4Carbo; [1])	log2 surviving fraction (Ov4Carbo; [2])	log2 surviving fraction (Ov4Cis; [1])	log2 surviving fraction (Ov4Cis; [2])
CC1(C)S[C@@H]2[C@H](NC(=O)[C@H](N)c3ccc(O)cc3)C(=O)N2[C@H]1C(=O)O [Amoxicillin sodium (Amox)]	-0.302 ± 0.44	-0.514 ± 0.15	-0.646	0.576	-1.45	-0.117
CCC(COC(=O)c1cc(OC)c(OC)c(OC)c1)(c1ccccc1)N(C)C (configuration not stated) [Trimebutine]	0.0823 ± 0.31	-0.333 ± 0.079	-0.042	-0.781	-0.0556	0.272
CC1(O)CCOC(=O)C1 (racemic) [DL-Mevalonic Acid Lactone]	0.0166 ± 0.64	0.236 ± 0.95	0.352	0.00823	-0.0383	-0.134
Nc1ccc(S(=O)(=O)Nc2ccccn2)cc1 [Sulfapyridine (Dagenan)]	0.101 ± 0.57	-0.152 ± 0.23	1.57	0.541	0.45	-0.0422
CC(=O)OCC(=O)[C@@]12OC(C)(C)O[C@@H]1C[C@H]1[C@@H]3C[C@H](F)C4=CC(=O)C=C[C@]4(C)[C@@]3(F)[C@@H](O)C[C@@]12C [Fluocinonide (Vanos)]	1 ± 0.54	-0.195 ± 0.77	0.821	0.491	1.32	-0.992
C[C@@H]1O[C@@H]1P(=O)(O)O [Fosfomycin Tromethamine]	0.331 ± 0.15	0.664 ± 0.58	0.403	0.339	-0.796	0.463
CN/C(=N\CCSCc1nc[nH]c1C)NC#N [Cimetidine (Tagamet)]	-0.28 ± 0.61	0.158 ± 0.24	0.339	-1.51	0.485	0.563
CNC[C@H](O)[C@@H](O)[C@H](O)[C@H](O)CO [Meglumine]	0.951 ± 0.29	0.146 ± 0.54	0.0664	-0.375	0.516	-0.0011
Nc1nc2[nH]cnc2c(=S)[nH]1 [Thioguanine]	-4.36 ± 2	-7.3 ± 3.2	-4.08	-9.75	-3.24	-5.98
Cc1cnc(C(=O)NCCc2ccc(S(=O)(=O)NC(=O)NC3CCCCC3)cc2)cn1 [Glipizide (Glucotrol)]	-2.29 ± 0.91	-2.6 ± 1.5	0.831	0.823	-2.17	-2.53
CC(=O)OC[C@H]1O[C@@H]([S-])[C@H](OC(C)=O)[C@@H](OC(C)=O)[C@@H]1OC(C)=O.CCP(CC)CC.[Au+] [Auranofin]	-10.1 ± 0.61	-7.95 ± 12	-8.2	-11.2	-9.76	-14.9
O=C(O)CSCC(=O)NC1CCSC1=O (configuration not stated) [Erdosteine]	1.75 ± 1.9	-0.236 ± 0.93	1.06	0.395	0.252	-0.0275
C#Cc1cccc(Nc2ncnc3cc(OCCOC)c(OCCO)cc23)c1 [OSI-420 (Desmethyl Erlotinib)]	-1.25 ± 0.087	-3.17 ± 0.92	-0.294	-3.25	-0.363	-2.62
CC1(C)S[C@@H]2[C@H](NC(=O)C(C(=O)O)c3ccccc3)C(=O)N2[C@H]1C(=O)O (some centres not stated) [Carbenicillin disodium]	-0.135 ± 0.2	0.199 ± 0.33	0.994	0.365	-0.8	0.212
Cc1cc(C(C)(C)C)cc(C)c1CC1=NCCN1 [Xylometazoline HCl]	0.686 ± 0.9	-0.657 ± 2.1	1.05	0.987	-0.569	0.556
Cc1cn([C@H]2C[C@H](N=[N+]=[N-])[C@@H](CO)O2)c(=O)[nH]c1=O [Zidovudine (Retrovir)]	-1.19 ± 0.23	-0.61 ± 0.26	-0.661	-1.4	-0.885	0.463
CC[N+]1(C)CCCC(OC(=O)C(O)(c2ccccc2)c2ccccc2)C1 (configuration not stated) [Pipenzolate Bromide]	0.209 ± 2	-1.13 ± 0.86	0.391	1.16	0.0843	-0.338
NC1CCN(c2c(F)cc3c(=O)c(C(=O)O)cn(C4CC4)c3c2Cl)C1 (configuration not stated)	0.55 ± 0.25	0.53 ± 0.2	-0.317	-0.0705	0.268	0.0344
CC1CCc2c(N3CCC(O)CC3)c(F)cc3c(=O)c(C(=O)O)cn1c23 (configuration not stated) [Nadifloxacin]	-0.279 ± 0.35	0.0106 ± 0.62	-1.04	0.677	-0.441	-0.0825
CCOC(=O)C1=C[C@]2(CC)CCCN3CCc4c(n1c1ccccc41)[C@@H]32 [Vinpocetine (Cavinton)]	-0.00164 ± 0.31	0.0448 ± 0.27	-0.379	0.0932	-0.0497	0.13
CO[C@H]1/C=C/O[C@@]2(C)Oc3c(C)c(O)c4c(c3C2=O)C2=NC3(CCN(CC(C)C)CC3)NC2=C(NC(=O)/C(C)=C\C=C\[C@H](C)[C@H](O)[C@@H](C)[C@@H](O)[C@@H](C)[C@H](OC(C)=O)[C@@H]1C)C4=O [Rifabutin (Mycobutin)]	0.209 ± 1.4	-1.47 ± 0.43	-0.193	-0.729	-1.48	-2.09
C=CC(=O)N1CCC[C@@H](n2nc(-c3ccc(Oc4ccccc4)cc3)c3c(N)ncnc32)C1	-0.147 ± 1.4	-2.01 ± 0.015	-1.59	-4.83	1.22	-1.22
CC(=O)OCC(=O)[C@@]1(O)CC[C@H]2[C@@H]3CCC4=CC(=O)C=C[C@]4(C)[C@H]3[C@@H](O)C[C@@]21C [Prednisolone acetate (Omnipred)]	2.19 ± 0.47	0.765 ± 1.4	0.685	0.314	1.49	0.143
